Results from the supplement of paper PMC8728848.
The other results are listed elsewhere or left out.

What was measured:
Test in all cases: glycan array binding signal (z-score within array); higher = stronger binding
Settings in all cases: glycan notation: IUPAC condensed, linker removed
GlcNAc(b1-4)GlcNAc = molecular target: GlcNAc(b1-4)GlcNAc
Summary of the method: (§1)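 The binding signal is a Z-score computed within each array. Data were drawn from 3228 arrays in the Consortium for Functional Glycomics database, restricted to those with a known protein sequence. Scores were averaged over arrays of the same protein sequence at different concentrations or buffers, and over linkers, and negative values can be taken as non-binding.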

[1] = molecular target: GlcNAc(b1-4)GlcNAc(b1-4)GlcNAc
Summary of the method: as §1

[2] = molecular target: GlcNAc(b1-4)GlcNAc(b1-4)GlcNAc(b1-4)GlcNAc(b1-4)GlcNAc
Summary of the method: as §1

[3] = molecular target: GlcNAc(b1-4)GlcNAc(b1-4)GlcNAc(b1-4)GlcNAc(b1-4)GlcNAc(b1-4)GlcNAc
Summary of the method: as §1

[4] = molecular target: GlcNAc(b1-4)[GlcNAc(b1-6)]GalNAc
Summary of the method: as §1

[5] = molecular target: GlcNAc(b1-6)Gal(b1-4)GlcNAc
Summary of the method: as §1

GlcNAc(b1-6)GalNAc = molecular target: GlcNAc(b1-6)GalNAc
Summary of the method: as §1

GlcNAc3Prop(b1-4)GlcNAc = molecular target: GlcNAc3Prop(b1-4)GlcNAc
Summary of the method: as §1

Kdn(a2-3)Gal(b1-3)GlcNAc = molecular target: Kdn(a2-3)Gal(b1-3)GlcNAc
Summary of the method: as §1

Kdn(a2-3)Gal(b1-4)GlcNAc = molecular target: Kdn(a2-3)Gal(b1-4)GlcNAc
Summary of the method: as §1

[6] = molecular target: Man(a1-2)Man(a1-2)Man(a1-3)Man
Summary of the method: as §1

[7] = molecular target: Man(a1-2)Man(a1-2)Man(a1-6)[Man(a1-3)]Man
Summary of the method: as §1

Man(a1-2)Man(a1-3)Man = molecular target: Man(a1-2)Man(a1-3)Man
Summary of the method: as §1

[8] = molecular target: Man(a1-2)Man(a1-3)[Man(a1-2)Man(a1-6)]Man
Summary of the method: as §1

[9] = molecular target: Man(a1-2)Man(a1-3)[Man(a1-2)Man(a1-6)]Man(a1-6)[Man(a1-2)Man(a1-2)Man(a1-3)]Man
Summary of the method: as §1

[10] = molecular target: Man(a1-2)Man(a1-3)[Man(a1-2)Man(a1-6)]Man(a1-6)[Man(a1-2)Man(a1-2)Man(a1-3)]Man(b1-4)GlcNAc(b1-4)GlcNAc
Summary of the method: as §1

[11] = molecular target: Man(a1-2)Man(a1-3)[Man(a1-2)Man(a1-6)]Man(a1-6)[Man(a1-3)[Man(a1-6)]Man(a1-6)]Man(b1-4)GlcNAc(b1-4)GlcNAc
Summary of the method: as §1

[12] = molecular target: Man(a1-2)Man(a1-3)[Man(a1-6)]Man(a1-6)[Man(a1-2)Man(a1-3)]Man(b1-4)GlcNAc(b1-4)GlcNAc
Summary of the method: as §1

[13] = molecular target: Man(a1-2)Man(a1-6)[Man(a1-3)]Man(a1-6)[Man(a1-2)Man(a1-2)Man(a1-3)]Man
Summary of the method: as §1

[14] = molecular target: Man(a1-2)Man(a1-6)[Man(a1-3)]Man(a1-6)[Man(a1-2)Man(a1-2)Man(a1-3)]Man(b1-4)GlcNAc(b1-4)GlcNAc
Summary of the method: as §1

Man(a1-3)[Man(a1-6)]Man = molecular target: Man(a1-3)[Man(a1-6)]Man
Summary of the method: as §1

[15] = molecular target: Man(a1-3)[Man(a1-6)]Man(a1-6)[Man(a1-2)Man(a1-3)]Man(b1-4)GlcNAc(b1-4)GlcNAc
Summary of the method: as §1

[16] = molecular target: Man(a1-3)[Man(a1-6)]Man(a1-6)[Man(a1-3)]Man
Summary of the method: as §1

[17] = molecular target: Man(a1-3)[Man(a1-6)]Man(a1-6)[Man(a1-3)]Man(b1-4)GlcNAc(b1-4)GlcNAc
Summary of the method: as §1

[18] = molecular target: Man(a1-3)[Man(a1-6)]Man(b1-4)GlcNAc(b1-4)GlcNAc
Summary of the method: as §1

Man(a1-6)Man = molecular target: Man(a1-6)Man
Summary of the method: as §1

Man(b1-4)GlcNAc = molecular target: Man(b1-4)GlcNAc
Summary of the method: as §1

Neu5Ac(a2-3)Gal = molecular target: Neu5Ac(a2-3)Gal
Summary of the method: as §1

[19] = molecular target: Neu5Ac(a2-3)Gal(b1-3)GalNAc
Summary of the method: as §1

[20] = molecular target: Neu5Ac(a2-3)Gal(b1-3)GalNAc(b1-3)Gal(a1-4)Gal(b1-4)Glc
Summary of the method: as §1

[21] = molecular target: Neu5Ac(a2-3)Gal(b1-3)GalNAc(b1-3)Gal(b1-4)GlcNAc
Summary of the method: as §1

[22] = molecular target: Neu5Ac(a2-3)Gal(b1-3)GalNAc(b1-4)[Neu5Ac(a2-3)]Gal(b1-4)Glc
Summary of the method: as §1

[23] = molecular target: Neu5Ac(a2-3)Gal(b1-3)GalNAc6S
Summary of the method: as §1

[24] = molecular target: Neu5Ac(a2-3)Gal(b1-3)GlcNAc
Summary of the method: as §1

[25] = molecular target: Neu5Ac(a2-3)Gal(b1-3)GlcNAc(b1-3)Gal(b1-3)GlcNAc
Summary of the method: as §1

[26] = molecular target: Neu5Ac(a2-3)Gal(b1-3)GlcNAc6S
Summary of the method: as §1

[27] = molecular target: Neu5Ac(a2-3)Gal(b1-3)[Fuc(a1-4)]GlcNAc
Summary of the method: as §1

[28] = molecular target: Neu5Ac(a2-3)Gal(b1-3)[Fuc(a1-4)]GlcNAc(b1-3)Gal(b1-4)[Fuc(a1-3)]GlcNAc
Summary of the method: as §1

[29] = molecular target: Neu5Ac(a2-3)Gal(b1-3)[Neu5Ac(a2-3)Gal(b1-4)]GlcNAc
Summary of the method: as §1

[30] = molecular target: Neu5Ac(a2-3)Gal(b1-3)[Neu5Ac(a2-6)]GalNAc
Summary of the method: as §1

Neu5Ac(a2-3)Gal(b1-4)Glc = molecular target: Neu5Ac(a2-3)Gal(b1-4)Glc
Summary of the method: as §1

[31] = molecular target: Neu5Ac(a2-3)Gal(b1-4)GlcNAc
Summary of the method: as §1

[32] = molecular target: Neu5Ac(a2-3)Gal(b1-4)GlcNAc(b1-2)Man(a1-3)[GlcNAc(b1-2)Man(b1-4)GlcNAc(b1-2)Man(a1-6)]Man(b1-4)GlcNAc(b1-4)GlcNAc
Summary of the method: as §1

[33] = molecular target: Neu5Ac(a2-3)Gal(b1-4)GlcNAc(b1-2)Man(a1-3)[Neu5Ac(a2-6)Gal(b1-4)GlcNAc(b1-2)Man(a1-6)]Man(b1-4)GlcNAc(b1-4)GlcNAc
Summary of the method: as §1

[34] = molecular target: Neu5Ac(a2-3)Gal(b1-4)GlcNAc(b1-3)Gal(b1-3)GlcNAc
Summary of the method: as §1

[35] = molecular target: Neu5Ac(a2-3)Gal(b1-4)GlcNAc(b1-3)Gal(b1-4)GlcNAc
Summary of the method: as §1

[36] = molecular target: Neu5Ac(a2-3)Gal(b1-4)GlcNAc(b1-3)Gal(b1-4)GlcNAc(b1-3)Gal(b1-4)GlcNAc
Summary of the method: as §1

[37] = molecular target: Neu5Ac(a2-3)Gal(b1-4)GlcNAc(b1-3)Gal(b1-4)[Fuc(a1-3)]GlcNAc
Summary of the method: as §1

B1: CD83 (Homo sapiens) (protein)
chain: MSRGLQLLLLSCAYSLAPATPEVKVACSEDVDLPCTAPWDPQVPYTVSWVKLLEGGEERMETPQEDHLRGQHYHQKGQNGSFDAPNERPYSLKIRNTTSCNSGTYRCTLQDPDGQRNLSGKVILRVTGCPAQRKEETFKKYRAETSEQKLISEEDLSRGSDDDDKAEPRGP
glycan array binding signal (z-score) (GlcNAc(b1-4)GlcNAc): -0.248 | glycan array binding signal (z-score) [1]: -0.372 | glycan array binding signal (z-score) [2]: 0.065 | glycan array binding signal (z-score) [3]: 0.143 | glycan array binding signal (z-score) [4]: -0.429 | glycan array binding signal (z-score) [5]: -0.188 | glycan array binding signal (z-score) (GlcNAc(b1-6)GalNAc): -0.436 | glycan array binding signal (z-score) (GlcNAc3Prop(b1-4)GlcNAc): -0.313 | glycan array binding signal (z-score) (Kdn(a2-3)Gal(b1-3)GlcNAc): -0.365 | glycan array binding signal (z-score) (Kdn(a2-3)Gal(b1-4)GlcNAc): 0.312 | glycan array binding signal (z-score) [6]: 0.605 | glycan array binding signal (z-score) [7]: -0.333 | glycan array binding signal (z-score) (Man(a1-2)Man(a1-3)Man): -0.122 | glycan array binding signal (z-score) [8]: -0.021 | glycan array binding signal (z-score) [9]: -0.09 | glycan array binding signal (z-score) [10]: 2.96 | glycan array binding signal (z-score) [11]: 2.48 | glycan array binding signal (z-score) [12]: 0.888 | glycan array binding signal (z-score) [13]: -0.272 | glycan array binding signal (z-score) [14]: 1.64 | glycan array binding signal (z-score) (Man(a1-3)[Man(a1-6)]Man): -0.106 | glycan array binding signal (z-score) [15]: 11.7 | glycan array binding signal (z-score) [16]: -0.285 | glycan array binding signal (z-score) [17]: 0.723 | glycan array binding signal (z-score) [18]: -0.201 | glycan array binding signal (z-score) (Man(a1-6)Man): -0.345 | glycan array binding signal (z-score) (Man(b1-4)GlcNAc): -0.203 | glycan array binding signal (z-score) (Neu5Ac(a2-3)Gal): -0.105 | glycan array binding signal (z-score) [19]: -0.061 | glycan array binding signal (z-score) [20]: 0.647 | glycan array binding signal (z-score) [21]: -0.209 | glycan array binding signal (z-score) [22]: 0.069 | glycan array binding signal (z-score) [23]: -0.173 | glycan array binding signal (z-score) [24]: -0.246 | glycan array binding signal (z-score) [25]: -0.102 | glycan array binding signal (z-score) [26]: 8.93 | glycan array binding signal (z-score) [27]: -0.283 | glycan array binding signal (z-score) [28]: -0.081 | glycan array binding signal (z-score) [29]: -0.458 | glycan array binding signal (z-score) [30]: 0.241 | glycan array binding signal (z-score) (Neu5Ac(a2-3)Gal(b1-4)Glc): -0.155 | glycan array binding signal (z-score) [31]: -0.186 | glycan array binding signal (z-score) [32]: -0.215 | glycan array binding signal (z-score) [33]: -0.335 | glycan array binding signal (z-score) [34]: -0.299 | glycan array binding signal (z-score) [35]: -0.176 | glycan array binding signal (z-score) [36]: -0.448 | glycan array binding signal (z-score) [37]: -0.41
